In the supplement of paper PMC11417369:
± gives the standard deviation of the averaged measurements. The list shows a part of the results.

Each sequence was assayed on PfAP2-I AP2 domain 3 (GST-tagged) (assay: gcPBM binding intensity (ln(normalized median fluorescence intensity)); higher = stronger DNA binding).
Summary of the method: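 Binding intensity is defined as the maximum Masliner-normalised natural-log median intensity across replicate spots for either probe orientation. It was measured on an Agilent 4 × 180k array of primer-extended double-stranded 36-bp intergenic genomic probes and negative controls, to which GST-tagged P. falciparum DNA-binding domains made in E. coli were applied for 1 h in 1× PBS with 1% milk, 0.2 mg/ml BSA, 0.5% salmon testes DNA and 0.03% Triton X-100. Detection was by Alexa488 anti-GST antibody and scanning at 488 nm.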

Sequence	gcPBM binding intensity (ln)
TTATTGTTTATTAAATGTACAGATTCGTTAAAATTA [XGTACX_site3041]	7.845 ± 0.064
TATTTTTTTGTGTTTGGTACACACGTTATAAAAAAT [XGTACX_site2655]	8.15 ± 0.36
CTAGCAAATACATACACACACACACCCATACATATA [CACACA_site3496]	8.07 ± 0.38
ACAACAATATGGAATTGTACATATATATATAAATAT [XGTACX_site3139]	7.75 ± 0.46
GAACAAATAAAAAGGAGTACAATCAAATCTACGTAT [XGTACX_site343]	8.06 ± 0.26
TACACAAAACATAAAAGTACATAATAATAAAGTTAA [XGTACX_site8872]	7.74 ± 0.61
AGGAATAAATAATTAACACACACAATCTTTTTTTTT [CACACA_site9027]	7.6 ± 0.54
TAATAAGTATAAAATAGTACATATAAATATATCAAA [XGTACX_site8834]	7.67 ± 0.5
AAATAAAAAAACTATTGTACTGAATACAAATTAAAT [XGTACX_site3793]	7.53 ± 0.41
ATAATATTAGTAAACACACTCAAATTATATATGATA [CACACA_site5721]	7.54 ± 0.49
ACTTTTTCACATAAAAATGATCCGATTAGTAATAAT [XGTACX_negctrl_site248]	7.76 ± 0.62
AGTATACATTCATTTTGTACTCAATGATTTGATAAC [XGTACX_site6787]	7.63 ± 0.42
ATAATTATATTCCATACACACATATATTTAAAGGTT [CACACA_site2957]	7.95 ± 0.54
CATTTTTTAAGCATCACACACGAAAGAACAAAGTGG [CACACA_site4755]	8.21 ± 0.53
TGGAAAATTATAAGGTGTACATATAAGCTATTATAT [XGTACX_site118]	7.76 ± 0.47
TTTTTTTTTTTAAGGTGTACAATAAAAATTTATGCA [XGTACX_site8860]	8.39 ± 0.49
CATATATAAAATATATGTACTTATAGAACATAATTT [XGTACX_site1936]	7.3 ± 0.35
TGGTGTTTTTTTTAATGTACTTATAAAATAATACAT [XGTACX_site6574]	8 ± 0.45
TTTTTTTTACATGAACGTACATAATATATTTTATAA [XGTACX_site5249]	7.95 ± 0.33
ATGTAAAAATAAAGATGTACATGTATATATATATAT [XGTACX_site5193]	9.18 ± 0.55
CCTATAATTAGGGGTAGTACACAAAAAAAAAAAAAA [XGTACX_site6396]	8.15 ± 0.3
AATATATATTCATGTGTACACACAAAAAAAAATAAA [CACACA_site8690]	8.445 ± 0.007

Sequence	gcPBM binding intensity (ln)
AATTCCTTATACAATTGTACATAAAAAGAATAAAAA [XGTACX_site1343]	8.06 ± 0.25
TTAAAAAAGAATTGTGCACACACAAAAAATGTTCAT [CACACA_site1102]	10.3 ± 0.14
ATCAAACAAAAAATAAAAAAATGCGACATGTGTACA [TGCATGCA_negctrl_site164]	7.83 ± 0.64
CAAGGACAATTTACAAACATAATATATGTATATATA [TGCATGCA_negctrl_site5]	7.34 ± 0.35
TTGAATACATATATATGTACATATTCTATGGTTAGA [XGTACX_site4088]	7.57 ± 0.4
TTAATATTTTTAATTTGTACATATAATTAAATCTCT [XGTACX_site1736]	7.68 ± 0.49
GAAAATTATGTATATTGTACAAATATTATATTAAAT [XGTACX_site2467]	7.75 ± 0.5
TATAAAATTTAAATTATACACACTTAAGTAACATCA [CACACA_site531]	7.82 ± 0.54
CTGAGGAAGCTAATTACACACATGCATATTTTTTTT [CACACA_site2177]	8.16 ± 0.86
ATTATCTTCAAGTATGTACACACTATATATAATAAA [CACACA_site2441]	8.06 ± 0.36
AAATTATAATTAGGAACACACATATATATATATATA [CACACA_site3098]	9.34 ± 0.25
TACATGTATAATATAATACACACTATATAATATACA [CACACA_site2239]	7.8 ± 0.35
TACATACATACATACATACACACATATATATATATA [CACACA_site1996]	9.485 ± 0.021
AAAAAGAAGATGCAAACATGCACACAGAAAAAAAAA [TGCATGCA_site375]	8.38 ± 0.82
CTATTATAAAAATGATGTACACTTATATATACATAT [XGTACX_site6087]	7.78 ± 0.45
TTTTTTTTTTGAATATGTACTTAAAAAAATTTTTTT [XGTACX_site3851]	7.89 ± 0.45
TTTTCATTCCACAACGCACACCCATTTAAAAAAAAA [CACACA_site1377]	9.52 ± 0.28
TAATTTTTTTTTTTTTTTTTTTTTTTTTTTTTTTTA [CACACA_negctrl_site1218]	7.49 ± 0.3
AAAAAAAAAAAAATTACACACATACAGATAATAATA [CACACA_site5244]	7.71 ± 0.21
ATAACATGAACATATGTTACACAAACATACATACAT [XGTACX_negctrl_site365]	8.27 ± 0.92
AAAAAATATTTTAGTGGTACATTTGTAGCTCTCAAA [XGTACX_site4859]	7.74 ± 0.47
AATCAAATATTTAAATGTACTCAAGAAGGCTTAATC [XGTACX_site6907]	7.69 ± 0.52
